Assay results: PubChem BioAssay AID624173 (National Center for Advancing Translational Sciences (NCATS), 2012)
In all, about 410,000 compounds went through this assay and about 490 (0.12%) were called active. The inconclusive results got no clear call from the source; some entries with a clear call stand among them for comparison. Calls follow the shape of the dose curve; as a rule, active = well fitted inhibition curve with a large enough effect; inconclusive = small, poorly fitted or top-dose-only effect; inactive = flat fitted curve, though single readings scatter. Potencies beside an inconclusive call are fits to weak or partial responses and may not hold up.

Biological target: pyruvate kinase (Trypanosoma brucei) (UniProt Q57TT1)
Assay: qHTS of Trypanosoma Brucei Inhibitors; also: nearly all actives have a fitted effect of over 50% in size
Details: TbPYK enzyme, Kinase-Glo Plus ATP luminescence, 45 min; series mostly up to 76.8 µM; activity, negative = inhibition: at the top concentration
Summary of the method: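 Luminescent Kinase-Glo Plus end-point after 45 min room-temperature reaction of T. brucei pyruvate kinase started with 130 uM ADP (final). Buffer TEA 50 mM pH 7.2 with KCl, MgCl2, BSA, Tween-20; titration-based qHTS with fitted concentration-effect curves.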
% is scaled to controls: 0 for no effect and ±100 for the full control effect; potency is read from the fitted curve at half-maximal effect; tags tell the direction and shape of the fitted curve.

| Compound | Potency | activity, negative = inhibition |
| --- | --- | --- |
| CC(=O)[O][Hg][c]1ccccc1 | inconclusive: 22.4 µM [inhibitor, partial curve, poor fit] |  |
| CSc1cnn(Cc2ccccc2)c(=O)c1SCc1ccccc1 | inconclusive: 11.2 µM [inhibitor, partial curve, poor fit] |  |
| C=CCn1c(-c2csc3c2CCC(C)C3)n[nH]c1=S (centres undefined) | inconclusive: 3.98 µM [inhibitor, full curve, poor fit] |  |
| O=C1C(c2cc(=O)c3ccccc3[nH]2)=C(O)c2ccccc21 | active: 8.91 µM |  |
| O=C(O)/C=C/C(=O)NNC(=O)c1cc(-c2ccccc2)n[nH]1 | inconclusive: 39.8 µM [inhibitor, partial curve, poor fit] |  |
| NC(=S)NNC(=O)c1ccccc1 | inconclusive: 1 µM [inhibitor, full curve, poor fit] |  |
| O=C(OCc1nnc(-c2ccccc2)o1)c1cc(S(=O)(=O)N2CCOCC2)c(Cl)cc1Cl | inconclusive: 28.2 µM [inhibitor, partial curve] |  |
| COc1ccc(-n2c(SCc3ccccn3)nc3c(c2=O)SCC3)cc1OC |  | inactive: -0.649% |
| Cc1ccc(C(=O)n2ncn(C)c2=S)cc1 | inconclusive: 22.4 µM [inhibitor, partial curve, poor fit] |  |
| Cc1ccc(-c2cnn(-c3ccccc3)c2N)cc1 | inconclusive: 10 µM [inhibitor, partial curve, poor fit] |  |
| O=C1/C(=C/c2ccncc2)CCc2ccccc21 | inconclusive: 50.1 µM [inhibitor, single point] |  |
| CCOc1ccccc1NC(=O)Cn1ncc2c(=O)oc3ccc(C)cc3c21 |  | inactive: -5.59% |
| CC1CCC2(CC1)NC(=O)N(CC(=O)N1CCN(C(=O)c3ccco3)CC1)C2=O (centres undefined) |  | inactive: 1.17% |
| CCOC(=O)c1c(-c2ccc(C)o2)csc1NC(=O)CSc1nncs1 | inconclusive: 20 µM [inhibitor, partial curve] |  |
| Clc1ccccc1CN1CCC(Cc2ccccc2)CC1 |  | inactive: 24.9% |
| S=c1nc(C2CCCCC2)[nH][nH]1 | inconclusive: 31.6 µM [inhibitor, partial curve, poor fit] |  |
| CCOC(=O)C1(C)C(C(=O)OC)=C(c2ccc(OC)cc2)c2ccccc2N1C(=O)OC (centres undefined) | inconclusive: 28.2 µM [inhibitor, partial curve] |  |
| COc1ccc(NC(=O)c2c(NCc3sccc3C)sc3c2CCCC3)c(OC)c1 | inconclusive: 44.7 µM [inhibitor, single point] |  |
| CCOc1ccc(N(CC(=O)N2CCCCCC2)S(=O)(=O)c2ccc(F)cc2)cc1 |  | inactive: 1.24% |
| COc1ccccc1NC(=O)c1sc2nc(C)c(C(=O)Nc3ccc(C)cc3C)c(-c3ccco3)c2c1N |  | inactive: 11.6% |
| Cc1ccc(C(=O)N/C(=C\c2ccc(-c3ccccc3[N+](=O)[O-])o2)C(=O)NCCCN(C)C)cc1 |  | inactive: -4.43% |
| COc1ccccc1OCc1ccc(C(=O)NC2CCCCC2)o1 |  | inactive: -0.624% |

| Compound | Potency | activity, negative = inhibition |
| --- | --- | --- |
| O=C1NC(=O)N(c2cccc(Br)c2)C(=O)/C1=C/c1ccsc1 | inconclusive: 31.6 µM [inhibitor, partial curve] |  |
| Cc1cccc(N2C(N)=NC(N)=NC23CCCCC3)c1 | inconclusive: 28.2 µM [inhibitor, single point] |  |
| CCOC(=O)Cn1c(=S)[nH]c2c(oc3ccc(Cl)cc32)c1=O | inconclusive: 31.6 µM [inhibitor, partial curve, poor fit] |  |
| COc1cc(-c2n[nH]c(=S)n2-c2ccccc2C(F)(F)F)cc(OC)c1OC | inconclusive: 5.62 µM [inhibitor, partial curve] |  |
| Cc1ccc2nc(NC(=O)CSc3nc4c(c(=O)n3C)SC(C)C4)sc2c1 (centres undefined) | inconclusive: 50.1 µM [inhibitor, single point] |  |
| COc1ccc(C(C2C(=O)CC(C)(C)CC2=O)C2C(=O)CC(C)(C)CC2=O)cc1CO | inconclusive: 28.2 µM [inhibitor, single point] |  |
| O=C(Nc1ccccc1F)c1ccc2c(Cl)c3c(nc2c1)CCC3 | inconclusive: 35.5 µM [inhibitor, single point] |  |
| O=C1CCCC2=C1C(c1ccccc1)C1C(=O)c3ccccc3C1=N2 (centres undefined) | inconclusive: 31.6 µM [inhibitor, partial curve, poor fit] |  |
| CCn1c(-c2cc(-c3ccccc3)sc2N)n[nH]c1=S | inconclusive: 0.891 µM [inhibitor, full curve, poor fit] |  |
| Nc1ccc(O)c2c(=O)cc(-c3ccccc3Cl)oc12 |  | inactive: 2.95% |
| COc1cc([N+](=O)[O-])c(OC)cc1SCc1n[nH]c(=S)n1-c1ccc(F)cc1 | inconclusive: 7.94 µM [inhibitor, partial curve] |  |
| CCOC(=O)c1ccc(NC(=O)CSc2ccc3ccccc3n2)cc1 | inconclusive: 31.6 µM [inhibitor, single point] |  |
| CCC(C)NC(=O)Cn1c(=O)n(CCCCCC(=O)NCc2ccccc2Cl)c(=O)c2sccc21 (centres undefined) |  | inactive: 1.18% |
| Cc1nn(CCc2n[nH]c(=S)n2C2CCCCC2)c(C)c1Br | active: 12.6 µM |  |
| CCn1c(-c2ccccc2)c[nH]c1=S | inconclusive: 20 µM [inhibitor, partial curve, poor fit] |  |
| CNCc1ccccc1Sc1cc(O)ccc1O | inconclusive: 11.2 µM [inhibitor, partial curve, poor fit] |  |
| N#CC1=C2SCN(c3ccccc3)CN2C(=O)CC1c1c(Cl)cccc1Cl (centres undefined) | active: 2.51 µM |  |
| COc1ccc(N2CSC3=C(C#N)C(c4cc(OC)c(OC)cc4OC)CC(=O)N3C2)c(OC)c1 (centres undefined) | active: 8.91 µM |  |
| O=C(NCC(c1cccs1)N1CCOCC1)c1cc(S(=O)(=O)N2CCOCC2)ccc1Cl (centres undefined) |  | inactive: 0.999% |
| COC(=O)c1ccc(NC(=O)c2ccc(CN3CCOCC3)cc2)cc1 | inconclusive: 5.01 µM [inhibitor, partial curve, poor fit] |  |
| CCNc1nc(NCC)n2c(SCC(=O)Nc3ccc(Br)cc3F)nnc2n1 | inconclusive: 31.6 µM [inhibitor, partial curve, poor fit] |  |
| COC(=O)c1sc(NC(=O)COc2ccc(C)cc2)nc1C |  | inactive: -10.7% |
